The values that follow come from paper PMC4336329 (PLoS ONE, 2015).

About 2,200 (0.71%) of roughly 310,000 compounds showed an effect of 50% or more. The effect is printed as a negative number. This is one part of the list.

human ether-à-go-go-related gene (hERG) potassium channel, sequence (Q12809 whole entry, looked up): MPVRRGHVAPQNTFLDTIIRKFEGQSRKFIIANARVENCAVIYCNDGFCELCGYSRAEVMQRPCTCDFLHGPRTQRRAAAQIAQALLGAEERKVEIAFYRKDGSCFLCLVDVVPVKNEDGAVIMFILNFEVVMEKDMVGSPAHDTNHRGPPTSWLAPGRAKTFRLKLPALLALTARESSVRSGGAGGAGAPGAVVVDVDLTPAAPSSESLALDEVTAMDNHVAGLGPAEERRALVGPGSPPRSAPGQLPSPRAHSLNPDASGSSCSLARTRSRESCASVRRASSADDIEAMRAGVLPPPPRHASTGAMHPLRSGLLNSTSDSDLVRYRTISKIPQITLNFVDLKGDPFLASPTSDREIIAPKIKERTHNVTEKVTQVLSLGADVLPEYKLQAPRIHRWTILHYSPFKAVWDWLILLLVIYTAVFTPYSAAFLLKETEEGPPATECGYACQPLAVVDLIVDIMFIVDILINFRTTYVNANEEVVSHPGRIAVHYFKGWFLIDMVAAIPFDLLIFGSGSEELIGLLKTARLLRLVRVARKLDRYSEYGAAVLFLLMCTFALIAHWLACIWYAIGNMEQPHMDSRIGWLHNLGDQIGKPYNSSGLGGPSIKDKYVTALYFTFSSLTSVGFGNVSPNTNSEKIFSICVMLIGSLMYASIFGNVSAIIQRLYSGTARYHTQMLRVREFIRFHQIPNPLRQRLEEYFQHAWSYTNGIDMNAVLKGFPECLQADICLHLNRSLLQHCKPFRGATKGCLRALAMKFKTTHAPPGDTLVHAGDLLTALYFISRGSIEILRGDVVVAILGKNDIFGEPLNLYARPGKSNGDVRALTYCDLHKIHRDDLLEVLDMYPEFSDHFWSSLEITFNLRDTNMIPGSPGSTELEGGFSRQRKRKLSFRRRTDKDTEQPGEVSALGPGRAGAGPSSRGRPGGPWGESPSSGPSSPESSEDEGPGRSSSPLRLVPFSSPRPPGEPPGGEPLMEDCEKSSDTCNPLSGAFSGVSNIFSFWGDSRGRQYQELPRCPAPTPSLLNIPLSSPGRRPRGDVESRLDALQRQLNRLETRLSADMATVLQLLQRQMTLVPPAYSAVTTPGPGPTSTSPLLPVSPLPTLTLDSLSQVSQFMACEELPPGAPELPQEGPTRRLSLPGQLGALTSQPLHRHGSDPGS

This assay concerns the target human ether-à-go-go-related gene (hERG) potassium channel (human, UniProt Q12809). As to the kind of experiment: primary screen, population patch clamp on CHO cells stably expressing hERG.
Consider `CCN(CC)c1ccc(NC(=O)COC(=O)c2cccs2)cc1.O=S(=O)(O)O`, for which the “hERG current change (%, negative = inhibition) at 1uM” value was -5.6%.

`Cc1ccc(S(=O)(=O)Nc2cc(C)nn2-c2ccccc2)cc1`: the “hERG current change (%, negative = inhibition) at 1uM” value was 8.38%.

In the case of `Cc1ccc(CNC(=O)C2CCCN(S(=O)(=O)c3c(C)n[nH]c3C)C2)cc1` (centres unmarked), the “hERG current change (%, negative = inhibition) at 1uM” value is listed as 0.141%.

For the molecule `Cc1sc2ncn(CC(=O)NCCCC(=O)NCc3ccc(F)cc3)c(=O)c2c1C`, the “hERG current change (%, negative = inhibition) at 1uM” value was 8.91%.

As to `O=c1oc2ccccc2c(NCc2ccc(Cl)cc2)c1[N+](=O)[O-]`, the “hERG current change (%, negative = inhibition) at 1uM” value is given as -0.351%.

As to `Cc1nn(-c2ccccc2)c2c1cc1c(=O)n(C)c(=O)nc-1n2-c1ccccc1F`, the “hERG current change (%, negative = inhibition) at 1uM” value was 10.6%.

Take `Cc1ccc2nc3c(nc2c1C)CCCC3`: the “hERG current change (%, negative = inhibition) at 1uM” value is given as 9.66%.

Turning to `O=C(Nc1ccc(SC(F)F)cc1)C1=CC=CN2CCS(=O)(=O)N=C12`, the “hERG current change (%, negative = inhibition) at 1uM” value is -4.25%.

Turning to `Cc1ccc(S(=O)(=O)NCC2NCCc3ccccc32)cc1` (centres unmarked), the “hERG current change (%, negative = inhibition) at 1uM” value worked out at 1.8%.

Regarding `CC(C)c1nnc(NC(=O)C2c3ccccc3Oc3ccccc32)s1`, the “hERG current change (%, negative = inhibition) at 1uM” value came out at 12.3%.

For the molecule `Cc1ccc(S(=O)(=O)N2CCN(C(=O)CN3C(=O)c4ccc([N+](=O)[O-])cc4C3=O)CC2)cc1C`, the “hERG current change (%, negative = inhibition) at 1uM” value was determined as 13.2%.

For `Cn1cc(CN2CCc3c([nH]c4ccccc34)C2C(C)(C)C)cn1` (centres unmarked), the “hERG current change (%, negative = inhibition) at 1uM” value is -3.25%.

For `CN1CCN(c2nc3ccccn3c(=O)c2C=C(C#N)C#N)CC1`, the “hERG current change (%, negative = inhibition) at 1uM” value is 12.9%.

Consider `O=C(COc1ccccc1)N(Cc1nnc(-c2ccccc2Cl)o1)C1CC1`, for which the “hERG current change (%, negative = inhibition) at 1uM” value worked out at 9.68%.

Consider `CN1/C(=C\C(=O)COc2ccc3c(c2)OCO3)C(C)(C)c2ccccc21`, for which the “hERG current change (%, negative = inhibition) at 1uM” value was 9.25%.

In the case of `CCCCN1C(C)=CC(=C2C(=O)c3ccccc3C2=O)C=C1C`, the “hERG current change (%, negative = inhibition) at 1uM” value is given as 6.34%.

As for `COc1ccc(CNC2CCCCC2C)c(OC)c1` (centres unmarked), the “hERG current change (%, negative = inhibition) at 1uM” value was -9.1%.

Regarding `C=CCN1C(=O)c2ccc(C(=O)OCC(=O)N(CC)C3CCS(=O)(=O)C3)cc2C1=O` (centres unmarked), the “hERG current change (%, negative = inhibition) at 1uM” value is reported as 2.52%.

`CCOc1ccc(C(=O)N2CCCC2C(=O)O)cc1` (centres unmarked): the “hERG current change (%, negative = inhibition) at 1uM” value worked out at 21.6%.

Take `Cc1ccc(S(=O)(=O)c2c(N)n(NC(=O)c3ccccc3C)c3nc4ccccc4nc23)cc1`: the “hERG current change (%, negative = inhibition) at 1uM” value is given as 5.01%.

Take `CCCCN(C)CCn1c(=S)[nH]c2ccc(N3CCOCC3)cc2c1=O`: the “hERG current change (%, negative = inhibition) at 1uM” value is listed as -18.4%.

With `Cc1ccc(S(=O)(=O)NCCNC(=O)c2nonc2N)cc1`, the “hERG current change (%, negative = inhibition) at 1uM” value was 7.29%.

As to `Brc1ccccc1OCCCN1CCCCCC1.O=C(O)C(=O)O`, the “hERG current change (%, negative = inhibition) at 1uM” value was -59.2%.

In the case of `O=C(Nc1ccc(F)c(F)c1)c1oc2ccccc2c1NC(=O)C1CCCO1` (centres unmarked), the “hERG current change (%, negative = inhibition) at 1uM” value came out at 11.2%.

With `Cn1ccnc1SCc1cn2cc(Br)ccc2n1`, the “hERG current change (%, negative = inhibition) at 1uM” value was 6.9%.

For the molecule `COc1ccc2c(c1OC)C(=O)N1N=C(c3ccc(Cl)cc3)CC21` (centres unmarked), the “hERG current change (%, negative = inhibition) at 1uM” value is listed as -3.88%.

For `CCc1nc(C#N)c(N2CCCCC2)o1`, the “hERG current change (%, negative = inhibition) at 1uM” value turned out to be 9.88%.

With `CN(C)NC(=S)Nc1ccc2nc(-c3ccccn3)c(-c3ccccn3)nc2c1`, the “hERG current change (%, negative = inhibition) at 1uM” value is recorded as 15.5%.

Take `CCN(CC)C(=O)CSc1nnc(-c2cccnc2)n1CCc1ccccc1`: the “hERG current change (%, negative = inhibition) at 1uM” value was -0.995%.

For `CC(C)NC(=O)Cn1c(SCC(=O)N2CCCc3ccccc32)nc2ccccc21`, the “hERG current change (%, negative = inhibition) at 1uM” value is 13.5%.

For the molecule `CC(C)[C@H](NC(=O)[C@@H]1Cc2ccccc2CN1C(=O)OC(C)(C)C)C(=O)NC1CCCC1`, the “hERG current change (%, negative = inhibition) at 1uM” value was 10.8%.

Turning to `CCOc1ccc(-c2c(C(=O)N/N=C/c3cccnc3)nnn2-c2nonc2N)cc1`, the “hERG current change (%, negative = inhibition) at 1uM” value is 12.7%.

As to `COc1cc(C(=O)NCCC(=O)NCCN2CCCCCC2)cc(OC)c1OC`, the “hERG current change (%, negative = inhibition) at 1uM” value turned out to be 1.92%.

With `Oc1ccc(-c2nnc(-c3ccc(O)cc3)nn2)cc1`, the “hERG current change (%, negative = inhibition) at 1uM” value was found to be 11.5%.

Turning to `CC(=O)c1ccc(NC(=S)N2CCN(c3cccc(Cl)c3)CC2)cc1`, the “hERG current change (%, negative = inhibition) at 1uM” value is on record as 12.6%.

In the case of `CCOc1ccc(C(=O)Nc2ccccc2C#N)cc1[N+](=O)[O-]`, the “hERG current change (%, negative = inhibition) at 1uM” value was -24.3%.

For `CCOC(=O)N1CCN(C(=O)CN(c2cc(Cl)ccc2OC)S(=O)(=O)c2ccccc2)CC1`, the “hERG current change (%, negative = inhibition) at 1uM” value worked out at 17.7%.

`COc1ccc(C2SCC(=O)N2c2c(C)n(C)n(-c3ccccc3)c2=O)cc1` (centres unmarked): the “hERG current change (%, negative = inhibition) at 1uM” value is recorded as -1.72%.

On to `COc1ccc(Cl)c(NC(=O)C/C(C)=N/NC(=O)CCc2ccccc2)c1`, for which the “hERG current change (%, negative = inhibition) at 1uM” value came to 8.11%.

In the case of `CN1CCN(c2ccc([N+](=O)[O-])cc2/C=N/NC(=O)c2cccc([N+](=O)[O-])c2)CC1`, the “hERG current change (%, negative = inhibition) at 1uM” value is given as -8.39%.

Consider `CC(=O)c1ccccc1OCCCN1CCCCC1.O=C(O)C(=O)O`, for which the “hERG current change (%, negative = inhibition) at 1uM” value was -6.05%.

As for `N#Cc1cccnc1N1CCN(C(=O)c2ccco2)CC1`, the “hERG current change (%, negative = inhibition) at 1uM” value turned out to be 12.7%.

Take `N/C(=N\S(=O)(=O)c1cc(C(F)(F)F)cc(C(F)(F)F)c1)c1cccs1`: the “hERG current change (%, negative = inhibition) at 1uM” value was found to be 14.4%.

As to `CCOCCCn1c(SCC(=O)N(C)C2CCS(=O)(=O)C2)nc2ccccc2c1=O` (centres unmarked), the “hERG current change (%, negative = inhibition) at 1uM” value is given as -0.296%.

For `COc1ccc(NC(=O)N2C3CCCC2CC(NC(=O)c2ccccc2)C3)cc1` (centres unmarked), the “hERG current change (%, negative = inhibition) at 1uM” value is given as -1.23%.

For `C=C(C)CNC(=S)NNC(=O)c1ccc(Br)cc1`, the “hERG current change (%, negative = inhibition) at 1uM” value is reported as 2.16%.

Take `COc1ccc(OC)c(S(=O)(=O)Nc2ccc(-c3ccc4nnc(C)n4n3)cc2)c1`: the “hERG current change (%, negative = inhibition) at 1uM” value was determined as 6.77%.

Take `CC(NC(=O)c1cccc(N2CCCC2=O)c1)c1ccc2c(c1)OCCO2` (centres unmarked): the “hERG current change (%, negative = inhibition) at 1uM” value was 5.41%.

In the case of `CN(Cc1nc(Cc2cccc(F)c2)no1)CC1CCOCC1`, the “hERG current change (%, negative = inhibition) at 1uM” value turned out to be 2.99%.

For `CSCCC1NC(=O)N(CC(=O)Nc2cccc3ccccc23)C1=O` (centres unmarked), the “hERG current change (%, negative = inhibition) at 1uM” value is 12.5%.

In the case of `Cc1c(C)c2ccc(OCC(=O)NCCc3c[nH]c4ccccc34)c(C)c2oc1=O`, the “hERG current change (%, negative = inhibition) at 1uM” value was 7.72%.

With `COc1ccc(CCNC(=O)C(=O)NN=C2CCCCCCC2)cc1OC`, the “hERG current change (%, negative = inhibition) at 1uM” value amounted to 9.71%.

In the case of `Cc1csc2c(=O)sc(NC(=O)c3ccco3)nc12`, the “hERG current change (%, negative = inhibition) at 1uM” value is reported as 12.4%.

Turning to `COc1ccc(C(C)NC(=O)c2ccc(Br)cc2)cc1OC` (centres unmarked), the “hERG current change (%, negative = inhibition) at 1uM” value turned out to be 1.56%.

Consider `Cc1oc(-c2ccc(Cl)cc2)nc1CN1CCC(C(=O)N2CCc3ccccc3C2)CC1`, for which the “hERG current change (%, negative = inhibition) at 1uM” value is listed as -56.7%.

Turning to `COc1ccc(NC(=O)CNS(=O)(=O)c2cccs2)c(OC)c1`, the “hERG current change (%, negative = inhibition) at 1uM” value is given as 3.03%.
